Data reported in the supplement of paper PMC12645437, “Orthogonal IMiD-Degron Pairs Induce Selective Protein Degradation in Cells” (ACS Chemical Biology, 2025).
The list shows a part of the results.

The sequences below were run against no compound (DMSO) (assay: log2 fold change of degron read counts, EGFP-low vs EGFP+ sorted cells; higher = lower degron-EGFP level without compound (poor expression or instability)). Conditions: compound: DMSO control; 18 h.
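Note: jurkat cells carrying a lentiviral library of mutant zinc finger degrons fused to EGFP plus mCherry, mCherry+ cells FACS sorted, degron abundance counted by next-generation sequencing.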

Sequence | log2 fold change of degron read counts
FWCPICGRYFTQKGNLLRHIKL | 0.549
FCCDICGARFTQKGNLLRHIKL | -0.293
FHCEVCGAEFTQKGNLLRHIKL | -1.76
FSCPICGHGFTQKGNLLRHIKL | -0.629
FKCEICGANFTQKGNLLRHIKL | -1.32
FACNVCGADFTQKGNLLRHIKL | -0.888
FDCEQCGAFFTQKGNLLRHIKL | -0.144
FSCNQCGRTFTQKGNLLRHIKL | -0.335
FRCEICGRAFTQKGNLLRHIKL | -1.48
FRCNVCGAYFTQKGNLLRHIKL | 0.222
FLCEICGHHFTQKGNLLRHIKL | -1.38
FICEICGRWFTQKGNLLRHIKL | -0.696
FHCDQCGAHFTQKGNLLRHIKL | -0.998
FNCDVCGASFTQKGNLLRHIKL | -1.9
FYCNQCGHPFTQKGNLLRHIKL | 0.363
FRCPICGRPFTQKGNLLRHIKL | 0.153
FDCNVCGAVFTQKGNLLRHIKL | -0.751
FVCEVCGAHFTQKGNLLRHIKL | -1.35
FWCNQCGAEFTQKGNLLRHIKL | -0.115
FTCPICGRNFTQKGNLLRHIKL | -0.493
FYCDVCGACFTQKGNLLRHIKL | -0.779
FECNQCGHPFTQKGNLLRHIKL | -0.259
FACDVCGAFFTQKGNLLRHIKL | -1.78
FDCPVCGATFTQKGNLLRHIKL | -1.14
FDCDVCGAQFTQKGNLLRHIKL | -1.29

Sequence | log2 fold change of degron read counts
FHCPICGAHFTQKGNLLRHIKL | 0.189
FSCEICGHVFTQKGNLLRHIKL | -0.769
FHCPQCGANFTQKGNLLRHIKL | -0.583
FSCPVCGAQFTQKGNLLRHIKL | -0.543
FTCEICGRMFTQKGNLLRHIKL | -0.668
LLCEICGFQCTQKGNLLRHIKL | 0.00543
FTCSVCGHCFTQKGNLLRHIKL | -0.767
FCCNICGACFTQKGNLLRHIKL | 0.0251
FECNVCGACFTQKGNLLRHIKL | -1.97
FCCEICGHDFTQKGNLLRHIKL | -1.21
FECDVCGAFFTQKGNLLRHIKL | -1.99
FICPICGHEFTQKGNLLRHIKL | -0.396
FKCDVCGAGFTQKGNLLRHIKL | -1.83
FQCPICGAGFTQKGNLLRHIKL | 0.00668
LWCNQCGFYCTQKGNLLRHIKL | 2.55
FWCNVCGAIFTQKGNLLRHIKL | 1.45
LGCNQCGFFCTQKGNLLRHIKL | 1.68
FRCEICGAEFTQKGNLLRHIKL | -2.75
LVCNQCGFGCTQKGNLLRHIKL | 0.306
FKCPICGAEFTQKGNLLRHIKL | -0.435
FECEICGRRFTQKGNLLRHIKL | -1.71
FECPICGANFTQKGNLLRHIKL | -0.55
FGCEVCGAFFTQKGNLLRHIKL | -0.954
FSCEICGACFTQKGNLLRHIKL | -2.2
FTCNVCGAAFTQKGNLLRHIKL | 0.101
